# Reference: publication PMC4336329 (PLoS ONE, 2015)
# Screen size: about 310,000 compounds; about 14,000 (4.5%) showed an effect of 50% or more. The effect is printed as a negative number. This is one part of the list.
# Target: human ether-à-go-go-related gene (hERG) potassium channel (human, UniProt Q12809)
# Test: primary screen, population patch clamp on CHO cells stably expressing hERG
# 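Also: peak tail current of the secondary pulse compared with the same well before compound.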
# Sequence of human ether-à-go-go-related gene (hERG) potassium channel (Q12809 whole entry, looked up): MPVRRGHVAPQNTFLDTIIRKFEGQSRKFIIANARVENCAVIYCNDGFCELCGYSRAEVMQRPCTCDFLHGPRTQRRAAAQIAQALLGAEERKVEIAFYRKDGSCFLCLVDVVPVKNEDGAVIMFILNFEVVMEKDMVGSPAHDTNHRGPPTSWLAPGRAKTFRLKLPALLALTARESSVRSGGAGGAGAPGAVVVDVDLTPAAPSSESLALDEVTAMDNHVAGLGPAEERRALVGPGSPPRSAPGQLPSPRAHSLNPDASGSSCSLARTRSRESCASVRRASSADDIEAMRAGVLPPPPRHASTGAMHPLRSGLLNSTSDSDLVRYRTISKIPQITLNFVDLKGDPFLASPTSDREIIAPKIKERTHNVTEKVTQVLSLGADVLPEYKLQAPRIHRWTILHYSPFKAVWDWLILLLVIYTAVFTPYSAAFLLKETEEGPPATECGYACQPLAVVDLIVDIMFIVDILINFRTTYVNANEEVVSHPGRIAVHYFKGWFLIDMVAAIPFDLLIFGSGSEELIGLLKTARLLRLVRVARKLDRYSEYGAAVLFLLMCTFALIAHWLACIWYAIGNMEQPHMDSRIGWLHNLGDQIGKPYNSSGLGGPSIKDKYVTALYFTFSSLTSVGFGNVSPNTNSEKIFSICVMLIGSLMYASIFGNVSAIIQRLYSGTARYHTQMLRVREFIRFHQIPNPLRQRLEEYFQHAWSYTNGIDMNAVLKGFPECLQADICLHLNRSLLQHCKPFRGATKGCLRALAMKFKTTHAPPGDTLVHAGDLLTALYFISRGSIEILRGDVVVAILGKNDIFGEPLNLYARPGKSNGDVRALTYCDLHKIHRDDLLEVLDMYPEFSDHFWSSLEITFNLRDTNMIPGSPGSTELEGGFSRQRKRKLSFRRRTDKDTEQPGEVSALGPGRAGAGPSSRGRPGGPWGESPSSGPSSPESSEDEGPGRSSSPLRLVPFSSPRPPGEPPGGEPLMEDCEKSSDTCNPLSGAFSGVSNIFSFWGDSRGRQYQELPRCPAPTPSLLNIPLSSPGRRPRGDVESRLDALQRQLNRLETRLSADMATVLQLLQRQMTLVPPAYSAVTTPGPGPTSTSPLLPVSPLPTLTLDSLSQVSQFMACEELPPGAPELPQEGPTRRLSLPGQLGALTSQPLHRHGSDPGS
row,Compound,"hERG current change (%, negative = inhibition) at 10uM"
1,O=C(/C=C/c1cccc(Oc2ccccc2)c1)N1CCOCC1,-4.94%
2,Cc1nc2ccc(S(=O)(=O)NCC(=O)NCCN3CCCCC3C)cc2s1 (centres unmarked),11%
3,CCNCc1nc2cc(Cl)ccc2c(=O)[nH]1.Cl,4.64%
4,O=C(NCc1ccco1)c1cc2nc(C3CC3)cc(C(F)(F)F)n2n1,-8.47%
5,CCOc1ccc(N(CC(=O)NCCc2ccc(F)cc2)S(=O)(=O)c2ccccc2)cc1,6.25%
6,CC(C)c1ccc(C(CC(=O)c2ccc(Cl)cc2)C(=O)O)cc1 (centres unmarked),-5.49%
7,CCOC(=O)c1nnn(CC(=O)NC(=O)Nc2cccc(CC)c2)c1C(=O)OCC,3.55%
8,Cn1c(-c2ccc(F)cc2)cnc1SCC(=O)N1CCCc2ccccc21,-24.8%
9,COc1cc(C(=O)N(C)Cc2cccc(OC)c2OC)ccc1OCC(=O)Nc1cccc(C(F)(F)F)c1,-17%
10,Cc1ccc(/C=N/NC(=O)c2ccncc2)o1,2.31%
11,C=CCNC(=O)c1ccc(N(CC=C)S(C)(=O)=O)cc1,-1.41%
12,O=C(CN1CCN(S(=O)(=O)c2ccc(Cl)cc2)CC1)NC1CCCC1,-50.2%
13,O=C(CC1SC(=Nc2ccccc2)N(CCCCO)C1=O)NCc1ccccc1 (centres unmarked),-36.7%
14,c1csc(-c2noc(CN3CCOCC3)n2)c1,17.1%
15,CC(=O)c1ccc(NC(=O)CCCC(=O)c2ccccc2)cc1,12.6%
16,CCCNC(=O)COC(=O)c1cc(-c2ccc(OC)cc2)nc2ccccc12,4.28%
17,CC1CC(C)CN(S(=O)(=O)c2ccccc2[N+](=O)[O-])C1 (centres unmarked),-10.2%
18,CCCCCCCCOC(=O)c1ccc(N)cc1,10.2%
19,CCn1cc(Br)c(C(=O)Nc2cccc(SC)c2)n1,-9.93%
20,CCN1CCN(Cc2ccc(NC(=O)Nc3cccs3)cc2)CC1,10.1%

row,Compound,"hERG current change (%, negative = inhibition) at 10uM"
1,O=C(CN1CCN(c2ccccn2)CC1)Nc1ccc2ccccc2c1,-43.9%
2,O=C(c1cccc(S(=O)(=O)Nc2cccc(C(F)(F)F)c2)c1)N1CCCCC1,-7.67%
3,Cc1ccc(C)c(S(=O)(=O)NCC(c2ccc3c(c2)OCO3)N2CCOCC2)c1 (centres unmarked),-22.4%
4,Cc1nc(N2CCOCC2)c(C#N)c(C)c1Br,-8.78%
5,Cl.O=C(CCN1CCN(C/C=C/c2ccccc2)CC1)Nc1ccccc1Cl,-76.4%
6,C=CCn1c2ccccc2c2nnc(SC(CC)C(=O)Nc3sc4c(c3C#N)CCCC4)nc21 (centres unmarked),18.8%
7,CCOc1ccc(N(CC(=O)Nc2ccc(F)c(F)c2)S(=O)(=O)c2c(C)noc2C)cc1,-9.69%
8,CC(C)(C)c1cc(C(=O)O)n[nH]1,-5.87%
9,COc1ccc(N/C=C2\C(=O)CCc3c2oc2cc(Cl)c(O)c(Cl)c32)cc1,19.4%
10,COc1ccc(-n2nc(C(=O)NCC(=O)N(C)Cc3ccccc3)c3ccccc3c2=O)c(OC)c1,8.57%
11,CCCn1c(SCC(=O)NCc2ccc(OC)cc2)n[nH]c1=O,-8.25%
12,Cc1c(C=N)c(O)n(C)c(=O)c1C#N,10.8%
13,CCCCSP1(=S)NCCCO1 (centres unmarked),-14.8%
14,Cc1ccc(/C=N/NC(=O)Cn2nnc(N)n2)cc1,7.14%
15,COc1ccc(OCC(=O)Nc2ccccc2C(=O)N2CCOCC2)cc1,10.1%
16,Cc1ccc(S(=O)(=O)Nc2nnc(C3CCCCC3)s2)cc1,6.36%
17,CC(=O)c1ccc(-n2nnnc2SCC(=O)NC2CCCCC2)cc1,-17%
18,N#Cc1c(-c2ccc(C(F)(F)F)cc2)cc(-c2ccccc2)[nH]c1=S,-2.91%
19,O=C(N/N=C\c1ccc[nH]1)c1cncc(Br)c1,3.82%
20,Cc1ccc(S(=O)(=O)Nc2cc(C)on2)cc1,15.4%

row,Compound,"hERG current change (%, negative = inhibition) at 10uM"
1,COc1cc(NC(=O)COC(=O)c2nc3nc(C)cc(C)n3n2)cc(OC)c1,-19.1%
2,S=C(NCC1CCCO1)N1CCN(c2ccccc2)CC1 (centres unmarked),23.5%
3,O=C(C(O)c1ccccc1)N1N=C(c2ccccc2)CC1(O)C(F)(F)F (centres unmarked),23.6%
4,COc1cc(C(=O)OCC(=O)Nc2cc(C)on2)c([N+](=O)[O-])cc1OC,2.51%
5,CC(C)COc1ccc(C(=O)Nc2ccc(N3CCOCC3)cc2N2CCOCC2)cc1,1.07%
6,O=C(Cn1nnc2ccccc2c1=O)Nc1cccc(S(=O)(=O)N2CCOCC2)c1,-16.8%
7,O=C(Nc1ccc(Cl)cc1C(=O)Nc1ccc(Br)cn1)c1ccco1,-12.5%
8,CN=Cc1c(NC)nc2c(C)cccn2c1=O,-15.1%
9,Cc1ccc(C23CC4CC(CC(C(=O)OCC(=O)N(C)C)(C4)C2)C3)cc1,10.8%
10,c1cncc(-c2nn3cnnc3s2)c1,9.93%
11,CC(=O)Nc1nnc(S(N)(=O)=O)s1,15%
12,Cc1occc1C(=O)NCc1ccccc1F,-8%
13,Cc1ccc(C)c(CSC2=NCCN2C(=O)c2cccs2)c1,13.5%
14,Cc1ccc(Oc2ccccc2)c(NC=O)c1,2.01%
15,Cc1c(N(C)C(=O)c2ccco2)c(=O)n(-c2ccccc2)n1C,0.317%
16,Cc1noc(/C=C/c2ccco2)c1S(=O)(=O)N1CCC(C(=O)N2CCc3ccccc32)CC1,8.13%
17,N#Cc1ccc(NC(=O)COC(=O)CCNS(=O)(=O)c2ccccc2)cc1,-34.4%
18,O=C(Nc1ccccc1)C1C(c2ccccc2)C1(Cl)Cl (centres unmarked),0.699%
19,COc1ccc(NC(=O)CCC(=O)Nc2cc(OC)c(NC(=O)c3ccco3)cc2OC)c(OC)c1,20.4%
